Experimental data from ChEMBL document CHEMBL4888484, “Replenishing the malaria drug discovery pipeline: Screening and hit evaluation of the MMV Hit Generation Library 1 (HGL1) against asexual blood stage Plasmodium falciparum ,using a nano luciferase reporter read-out” (2022).
In all, about 150,000 compounds went through this assay and about 540 (0.36%) showed an effect of 50% or more. The list shows a part of the results.

System: Plasmodium falciparum
Experiment: Primary screen in NF54 nanoGlo assay, in single point, at 2uM, 72h; a lower Z score goes with more inhibition
Type: functional, Erythrocyte
Settings: timepoint 72 hour

Going from `CCCN(CCC)S(=O)(=O)c1ccc2c(c1)OC[C@@H](C(=O)N1CCCC1)O2` to `CCN(C[C@H]1CCCCO1)C(=O)Nc1cccc2[nH]nnc12`, the “% Inhibition” value rises from -17% to -1%.

Compared with `Cc1nn(CC(F)(F)F)c(C)c1[C@H](C)c1nc(COCC(F)(F)C(F)F)no1`, `CC(=O)N(C)CCc1noc(C2CN(Cc3ccc(F)cc3F)C2)n1` is lower in “% Inhibition” value: -2% for the first, -3% for the second.

First: CC(C)c1cc(C(=O)N2C[C@H]3CCN(C(=O)N4CCOCC4)[C@H]3C2)no1
Second: C[C@H]1CCCN(C(=O)c2ccc3c(c2)nc2n3CCN(C3CCCCC3)C2=O)C1
The “% Inhibition” value of the first is lower: -11% for the first, 0% for the second.

Compared with `Cc1cccc(C(=O)N(C)C[C@@H](C)O)n1`, `Cc1cc(C(=O)N(C)Cc2ccns2)ns1` is lower in “% Inhibition” value: -9% for the first, -14% for the second.

Compared with `Cn1nc(-c2ccc(F)c3cccnc23)nc1N1CCOCC1`, `Clc1oc2ccccc2c1Cn1cnc(C2CC2)n1` is higher in “% Inhibition” value: 1% for the first, 3% for the second.

Compared with `CN(C)C(=O)CN(C)c1ncc(Cl)cc1F`, `CC(C)[C@H](C)N(CC(F)(F)F)C(=O)Cc1cnn(C)c1` is higher in “% Inhibition” value: -12% for the first, 1% for the second.

Compared with `Cn1cc(NC(=O)c2[nH]nc3c2CCCCC3)cn1`, `COCCn1cc(NC(=O)N(C)C[C@H](O)C2CC2)cn1` is higher in “% Inhibition” value: -17% for the first, -15% for the second.

First: C#CCCC1(CCC(=O)N2CC(c3ccc(F)cc3)C2)N=N1
Second: O=C(O)COc1ccccc1CN1C[C@H]2CC[C@H]1C2
The “% Inhibition” value of the first is higher: 6% for the first, -14% for the second.

Compared with `CNC(=O)[C@@H]1CC[C@](C)(C(=O)NCCCNc2cccnc2)C1(C)C`, `CCc1ccc(C(=O)NCCC[C@H]2CCOC2)[nH]1` is higher in “% Inhibition” value: -8% for the first, 10% for the second.

First: COC(=O)CNC(=O)N1CCN(Cc2nc3cc(C(=O)N(C)C)ccc3o2)CC1
Second: O=C(c1cscn1)N1CC[C@H]2[C@H](CCC(=O)N2CCc2ccccn2)C1
The “% Inhibition” value of the first is higher: 32% for the first, -11% for the second.

First: CN(CCc1ccccc1)C[C@@H]1OC[C@H](NCc2nccn2C)[C@H]1O
Second: c1cc(CNc2nccn3nccc23)ccn1
The “% Inhibition” value of the first is higher: 0% for the first, -18% for the second.

Compared with `C[C@H]1CN(C(=O)c2ccnc3[nH]c(CC4CC4)nc23)C2(CCC2)CO1`, `O=S(=O)(c1ccc2c(c1)CCC2)N1CC[C@@]2(CO)CN(Cc3ccccc3)C[C@H]2C1` is lower in “% Inhibition” value: 1% for the first, -9% for the second.

Compared with `CCCN(CCC)S(=O)(=O)c1ccc2c(c1)OC[C@@H](C(=O)N1CCCC1)O2`, `CCN(C[C@H]1CCCCO1)C(=O)Nc1cccc2[nH]nnc12` is lower in Z score: 2.91 for the first, 0.21 for the second.

First: Cc1nn(CC(F)(F)F)c(C)c1[C@H](C)c1nc(COCC(F)(F)C(F)F)no1
Second: CC(=O)N(C)CCc1noc(C2CN(Cc3ccc(F)cc3F)C2)n1
The Z score of the first is lower: 0.25 for the first, 0.41 for the second.

Going from `CC(C)c1cc(C(=O)N2C[C@H]3CCN(C(=O)N4CCOCC4)[C@H]3C2)no1` to `C[C@H]1CCCN(C(=O)c2ccc3c(c2)nc2n3CCN(C3CCCCC3)C2=O)C1`, the Z score falls from 1.56 to 0.04.

Going from `Cc1cccc(C(=O)N(C)C[C@@H](C)O)n1` to `Cc1cc(C(=O)N(C)Cc2ccns2)ns1`, the Z score rises from 1.15 to 2.7.

Compared with `Cn1nc(-c2ccc(F)c3cccnc23)nc1N1CCOCC1`, `Clc1oc2ccccc2c1Cn1cnc(C2CC2)n1` is lower in Z score: -0.23 for the first, -0.58 for the second.

First: CN(C)C(=O)CN(C)c1ncc(Cl)cc1F
Second: CC(C)[C@H](C)N(CC(F)(F)F)C(=O)Cc1cnn(C)c1
The Z score of the first is higher: 1.33 for the first, -0.1 for the second.

Going from `Cn1cc(NC(=O)c2[nH]nc3c2CCCCC3)cn1` to `COCCn1cc(NC(=O)N(C)C[C@H](O)C2CC2)cn1`, the Z score rises from 1.97 to 2.01.

Going from `C#CCCC1(CCC(=O)N2CC(c3ccc(F)cc3)C2)N=N1` to `O=C(O)COc1ccccc1CN1C[C@H]2CC[C@H]1C2`, the Z score rises from -0.75 to 2.48.

Compared with `CNC(=O)[C@@H]1CC[C@](C)(C(=O)NCCCNc2cccnc2)C1(C)C`, `CCc1ccc(C(=O)NCCC[C@H]2CCOC2)[nH]1` is lower in Z score: 1.35 for the first, -1.3 for the second.

First: COC(=O)CNC(=O)N1CCN(Cc2nc3cc(C(=O)N(C)C)ccc3o2)CC1
Second: O=C(c1cscn1)N1CC[C@H]2[C@H](CCC(=O)N2CCc2ccccn2)C1
The Z score of the first is lower: -3.6 for the first, 1.71 for the second.

Going from `CN(CCc1ccccc1)C[C@@H]1OC[C@H](NCc2nccn2C)[C@H]1O` to `c1cc(CNc2nccn3nccc23)ccn1`, the Z score rises from 0.01 to 2.3.

Going from `C[C@H]1CN(C(=O)c2ccnc3[nH]c(CC4CC4)nc23)C2(CCC2)CO1` to `O=S(=O)(c1ccc2c(c1)CCC2)N1CC[C@@]2(CO)CN(Cc3ccccc3)C[C@H]2C1`, the Z score rises from -0.21 to 1.04.
